# Screen size: about 410,000 compounds; about 5,000 (1.2%) were called active. This list was built around the results that the source calls inconclusive (neither active nor inactive); the mix of calls is not that of the screen. The call rests on the fitted dose curve; in most records, active means well fitted inhibition curve with a large enough effect; inconclusive means small, poorly fitted or top-dose-only effect; inactive means no such curve, though single readings can be large or run the other way. Potencies beside an inconclusive call are fits to weak or partial responses and may not hold up.
# Test: qHTS for Inhibitors of TGF-b; further: nearly all actives have a fitted effect of over 65% in size
# Settings: HepG2 CAGA-GFP TGF-b/SMAD3 reporter, GFP fluorescence, 18 h, TGF-beta stimulated, 500 pg/mL final; series mostly up to 46.1 µM; activity, negative = inhibition: at the top concentration
# Method in brief: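 Inhibition was scored as loss of TGF-beta-induced (500 pg/mL final, 18 hours, 37 degrees C) GFP in HEPG2 cells carrying a CAGA-GFP reporter, in DMEM with 1% FBS. Well GFP was summed per cell; Activity was normalised to unstimulated and stimulated DMSO wells, then concentration-response fitting.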
# On the % scale 0 is the no-effect control and ±100 the full control effect; potency means the concentration at half of the fitted maximal effect; tags describe the fitted curve by direction and shape.
SMILES,"activity, negative = inhibition",Potency
COc1cccc(C(=O)Nc2ccc3nc(SCC(=O)N4CCc5ccccc54)sc3c2)c1,inactive: -18.7%,–
CCOc1ccc2nc(N3CCC(C(=O)N4CCN(C5CCCCC5)CC4)CC3)sc2c1,–,"inconclusive: 25.1 µM [inhibitor, single point]"
COc1cc(NC(=O)CCCN2C(=O)CCn3nc(-c4cn(C)c5ccccc45)cc32)cc(OC)c1,–,"inconclusive: 22.4 µM [inhibitor, single point]"
COCc1cc(/C=N\NC(=O)COc2ccc(Cl)cc2)ccc1OC,inactive: -2.79%,–
CCOc1cc(-c2nc(-c3ccc(C)nc3OC)no2)cc(OCC)c1OCC,–,"inconclusive: 2.82 µM [inhibitor, single point]"
CN1CCN(CCNC(=O)c2ccc3nc(-c4ccc(F)cc4)c(-c4ccc(F)cc4)nc3c2)CC1,–,"inconclusive: 35.5 µM [inhibitor, single point]"
C/C(Cl)=C\Cn1c(O)c(N=O)c2ccccc21,–,"inconclusive: 3.98 µM [inhibitor, full curve]"
Cc1cc(Br)ccc1NC(=O)C(NS(=O)(=O)c1cccs1)c1ccccc1 (centres undefined),–,"inconclusive: 1.26 µM [inhibitor, partial curve, poor fit]"
CC(C)n1c(NCc2cc(Cl)ccc2O)nc2ccccc21,–,"inconclusive: 35.5 µM [inhibitor, single point]"
CN(C)CCOC(=O)c1ccc2[nH]c3c(c2c1)CSCC3,–,"inconclusive: 5.62 µM [inhibitor, single point]"
CC(=O)c1ccc(OCC(=O)NC(=O)NC2CCCCC2)cc1,inactive: -17.4%,–
Cc1ccc(-n2ncc(C(=O)N(C)Cc3ccccc3)c2-n2cccc2)cc1,–,"inconclusive: 12.6 µM [inhibitor, partial curve, poor fit]"
COc1ccccc1Nc1cc(C)nc2c(C)ccc([N+](=O)[O-])c12,inactive: 0%,–
COc1ccc(C(=O)Oc2ccc(F)cc2C(=O)/C=C/c2ccc(OC)c(OC)c2)cc1,inactive: 0%,–
CCCC(=O)N1CC(=O)Nc2ccc(C)cc2C1c1ccccc1 (centres undefined),–,"inconclusive: 6.31 µM [inhibitor, single point]"
COc1ccc(NS(=O)(=O)NC(=O)c2c(C)n(C)c3ccccc23)cc1,inactive: -2.66%,–
CC(c1ccc(F)cc1)n1c(-c2cccs2)n[nH]c1=S (centres undefined),–,"inconclusive: 6.31 µM [inhibitor, single point]"
CN(C)Cc1c(C(=O)N/N=C/c2ccccc2OCc2c(F)cccc2Cl)nnn1-c1nonc1N,–,"inconclusive: 7.08 µM [inhibitor, partial curve, poor fit]"
NS(=O)(=O)c1ccc(CCNC(=O)CCn2c(=O)c3cccn3c3cccnc32)cc1,–,"inconclusive: 35.5 µM [inhibitor, single point]"
O=C(NCc1nc2ccccc2[nH]1)C1=C[C@@H](C2CCCCC2)C[C@@H](OCc2ccc(CO)cc2)O1,–,"inconclusive: 17.8 µM [inhibitor, single point]"
CCN(C(=O)C(C)N1C(=O)/C(=C/c2ccco2)SC1=S)C1CCS(=O)(=O)C1 (centres undefined),inactive: -27%,–
COc1cccc2c(=O)c(C(=O)NCCc3ccccc3)c[nH]c12,inactive: -14.9%,–

SMILES,"activity, negative = inhibition",Potency
C/C(=N\Nc1nc(C)cc(-c2ccccc2)n1)c1ccc(F)cc1,–,"inconclusive: 3.55 µM [inhibitor, partial curve]"
CCN1C(=O)[C@H]2[C@@H](c3ccc(C(F)(F)F)cc3)N[C@]3(CCCN(Cc4ccc(OC)cc4)C3=O)[C@H]2C1=O,–,"inconclusive: 1.58 µM [inhibitor, partial curve, poor fit]"
COc1ccc(-c2nc(SCCOc3cc(C)ccc3C(C)C)n3[nH]c(=O)cc3n2)cc1,–,"inconclusive: 15.8 µM [inhibitor, single point]"
COc1ccc(CN2C(CC(=O)Nc3cccnc3)c3ccc(C(F)(F)F)cc3S2(=O)=O)cc1 (centres undefined),–,"inconclusive: 3.98 µM [inhibitor, single point]"
COc1cccc(/C=N/Nc2nnc(C)n2N)c1OCc1ccccc1Cl,–,"inconclusive: 28.2 µM [inhibitor, single point]"
COC(=O)C1=CO[C@@H](O[C@@H]2O[C@H](CO)[C@@H](O)[C@H](O)[C@H]2O)[C@H]2[C@@H]1C(=O)C[C@@H]2C,–,"inconclusive: 3.55 µM [inhibitor, single point]"
CCCCN(Cc1ccco1)C(=O)C1CCCN(c2ncnc3c2nc2n3CCCCC2)C1 (centres undefined),–,"inconclusive: 22.4 µM [inhibitor, single point]"
c1ccc2c(c1)CC1(CCCC1)N=C2N1CCOCC1,inactive: 4.14%,–
COc1cccc(N2C(=O)CSC23C(=O)N(Cc2ccccc2F)c2ccccc23)c1 (centres undefined),inactive: -8.25%,–
COc1ccc(CNC(=S)N/N=C(\C)c2ccc(OC)cc2)cc1,–,"inconclusive: 35.5 µM [inhibitor, single point]"
O=C(C[C@@H]1C/C=C\C[C@H](Cc2ccc(F)cc2)C(=O)OC[C@@H](Cc2c[nH]c3ccccc23)NC1=O)NCCO,–,"inconclusive: 6.31 µM [inhibitor, full curve, poor fit]"
COc1ccc2c(CNCCc3ccccc3OC)c(C(=O)O)n(Cc3ccc(F)cc3Cl)c2c1,–,"inconclusive: 35.5 µM [inhibitor, single point]"
COc1ccc2cc(CCNC(=O)C(C)C)c(=O)[nH]c2c1,–,"inconclusive: 3.16 µM [inhibitor, single point]"
Nc1cc(-c2ccc(Br)cc2)nn1S(=O)(=O)c1cccc2nsnc12,–,"inconclusive: 5.62 µM [inhibitor, partial curve, poor fit]"
CCOc1ccc(CCNC(=O)COC(=O)CSc2ccc(C)cc2)cc1OCC,inactive: 0%,–
COCCC(=O)N1CCC(Oc2ccc(C(=O)N3CCCC(COC)C3)cc2)CC1 (centres undefined),–,"inconclusive: 0.1 µM [inhibitor, full curve, poor fit]"
O=C1CC(c2ccccc2)=NN1c1ccccc1,–,"inconclusive: 20 µM [inhibitor, single point]"
Cc1cc(C)c(NC(=S)N(C)C)cc1C,inactive: 3.54%,–
CCC(C)Sc1cccc(-c2nc3cc(C)ccn3c2NCc2ccccc2)c1 (centres undefined),–,active: 15.8 µM
Cc1nc(NC(=S)Nc2ccccc2)sc1C,–,"inconclusive: 10 µM [inhibitor, partial curve, poor fit]"
Cc1ccc2sc(N(CCCN(C)C)C(=O)c3nc4ccccc4s3)nc2c1C,–,"inconclusive: 35.5 µM [inhibitor, single point]"
CC1CCc2nc(NC(=O)Cc3ccc(Cl)cc3)sc2C1 (centres undefined),–,active: 15.8 µM

SMILES,"activity, negative = inhibition",Potency
O=C(NCCOc1ccccc1-c1ccccc1)c1ccco1,–,"inconclusive: 6.31 µM [inhibitor, single point]"
O=C(CCN1C(=O)c2ccccc2C1=O)Nc1ccccn1,–,"inconclusive: 6.31 µM [inhibitor, single point]"
Cc1nc(NC(=O)/C=C/c2ccccc2)n[nH]1,–,active: 12.6 µM
Cc1ccc(C)c(NC(=O)CN(C)C(=O)c2cccc(N3C(=O)CCC3=O)c2)c1,inactive: 2.49%,–
CCOc1ccc(-c2nnc3ccc(SC(C)C)nn23)cc1,–,"inconclusive: 2.82 µM [inhibitor, full curve, poor fit]"
CSC(=Nc1ccccc1)N=C(SCc1ccccc1)N(C)C,–,active: 5.62 µM
CCC(Oc1ccc2c(=O)c(-c3ccccc3OC)coc2c1)C(=O)OCc1ccccc1 (centres undefined),–,"inconclusive: 35.5 µM [inhibitor, single point]"
Cc1cc(-c2ccc(C)c(S(=O)(=O)NCCCN3CCN(c4ccccc4)CC3)c2)on1,–,"inconclusive: 12.6 µM [inhibitor, partial curve]"
O=C(OCC1CCCO1)c1ccc2c(c1)N(Cc1cccc(F)c1)C(=O)c1ccccc1S2(=O)=O (centres undefined),–,"inconclusive: 14.1 µM [inhibitor, single point]"
Cc1cccc(NC(=S)NCc2ccc3c(c2)cc(C)n3C)c1C,–,"inconclusive: 35.5 µM [inhibitor, single point]"
CC(=O)Nc1cccc(C(=O)N2CCN(S(=O)(=O)c3ccc(C4CCCCC4)cc3)CC2)c1,–,"inconclusive: 35.5 µM [inhibitor, single point]"
CN1CCc2c(sc3c2c(=O)n(-c2ccccc2)c2n[nH]c(=S)n32)C1,–,"inconclusive: 1.41 µM [inhibitor, full curve, poor fit]"
COc1ccccc1-c1cc(C(F)(F)F)nc(NCc2cccs2)n1,–,"inconclusive: 35.5 µM [inhibitor, single point]"
COc1ccc([C@H]2CC(=O)C=C(c3cc(Cl)ccc3C)C2)cc1,–,"inconclusive: 14.1 µM [inhibitor, single point]"
CC(C)c1nn2c(=O)cc(COC(=O)COc3ccccc3F)nc2s1,–,"inconclusive: 0.112 µM [inhibitor, full curve, poor fit]"
Cc1cc(C(=O)CN2C(=O)NC3(CCCc4ccccc43)C2=O)c(C)n1Cc1ccccc1 (centres undefined),–,"inconclusive: 2.82 µM [inhibitor, full curve]"
NC(=O)CC(NC(=O)Cc1ccc(Br)cc1)c1ccc(N2CCN(c3ccccc3)CC2)c([N+](=O)[O-])c1 (centres undefined),–,"inconclusive: 31.6 µM [inhibitor, single point]"
CCCc1ccc2oc(C(=O)N(C)Cc3cnccn3)c(C)c2c1,–,"inconclusive: 10 µM [inhibitor, partial curve, poor fit]"
Cc1ccc(C)c(N2CCN(CCCNC(=O)c3ccc4nc(C(C)C)oc4c3)CC2)c1,–,"inconclusive: 10 µM [inhibitor, partial curve, poor fit]"
Nn1c(SC/C=C/c2ccccc2)nnc1-c1cccnc1,inactive: 17.7%,–
